From PMC4336329 (PLoS ONE, 2015)
Screen size: about 310,000 compounds; about 2,200 (0.71%) showed an effect of 50% or more. The effect is printed as a negative number. The list shows a part of the results.

Each compound was assayed against human ether-à-go-go-related gene (hERG) potassium channel (human, UniProt Q12809) (assay: primary screen, population patch clamp on CHO cells stably expressing hERG).
Sequence of human ether-à-go-go-related gene (hERG) potassium channel (Q12809 whole entry, looked up): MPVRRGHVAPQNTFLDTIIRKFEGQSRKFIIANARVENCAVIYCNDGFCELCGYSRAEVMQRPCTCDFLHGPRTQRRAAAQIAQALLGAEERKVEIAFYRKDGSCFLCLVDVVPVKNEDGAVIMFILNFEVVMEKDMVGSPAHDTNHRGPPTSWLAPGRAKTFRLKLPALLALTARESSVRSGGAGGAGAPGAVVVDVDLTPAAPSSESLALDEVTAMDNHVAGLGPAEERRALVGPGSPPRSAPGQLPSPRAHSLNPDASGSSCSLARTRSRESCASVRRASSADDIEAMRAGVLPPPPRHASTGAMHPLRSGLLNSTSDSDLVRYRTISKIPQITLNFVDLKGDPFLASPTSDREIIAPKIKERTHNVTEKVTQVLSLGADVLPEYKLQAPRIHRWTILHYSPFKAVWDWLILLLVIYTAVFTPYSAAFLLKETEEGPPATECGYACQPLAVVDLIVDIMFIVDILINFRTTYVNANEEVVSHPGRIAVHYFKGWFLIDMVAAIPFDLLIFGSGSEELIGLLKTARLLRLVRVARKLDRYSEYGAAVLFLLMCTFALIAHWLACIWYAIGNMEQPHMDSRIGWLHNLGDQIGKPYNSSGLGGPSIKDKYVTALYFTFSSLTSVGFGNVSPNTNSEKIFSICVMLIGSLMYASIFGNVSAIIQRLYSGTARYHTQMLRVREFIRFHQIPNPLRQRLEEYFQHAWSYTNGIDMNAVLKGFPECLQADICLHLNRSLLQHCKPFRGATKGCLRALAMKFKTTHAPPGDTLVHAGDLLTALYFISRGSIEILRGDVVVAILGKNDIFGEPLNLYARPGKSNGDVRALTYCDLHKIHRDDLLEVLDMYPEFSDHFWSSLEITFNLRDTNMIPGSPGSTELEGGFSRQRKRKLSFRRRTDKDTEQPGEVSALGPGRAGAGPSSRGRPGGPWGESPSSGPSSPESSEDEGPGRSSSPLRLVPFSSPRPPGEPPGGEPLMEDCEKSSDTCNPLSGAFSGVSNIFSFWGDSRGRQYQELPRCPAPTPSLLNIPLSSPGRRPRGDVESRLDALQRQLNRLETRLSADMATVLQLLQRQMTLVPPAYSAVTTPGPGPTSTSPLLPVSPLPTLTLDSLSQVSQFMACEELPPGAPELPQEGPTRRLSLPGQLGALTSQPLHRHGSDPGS

Row | SMILES | hERG current change (%, negative = inhibition) at 1uM
1 | COc1ccccc1N1CCN(CC(=O)c2ccc(F)cc2)CC1.Cl | 16.7%
2 | O=C(/C=C/Nc1ccccc1)c1ccc(Oc2ncccn2)cc1 | 7.54%
3 | COc1ccc(CC(=O)Nc2ccc(S(=O)(=O)N(C)C)cc2)cc1OC | 12.2%
4 | O=C(Nc1cc(C(F)(F)F)ccc1-n1cncn1)C1CC1 | 13.7%
5 | O=C(Nc1ccc(S(=O)(=O)Nc2nccs2)cc1)C1CC(=O)N(c2ccccc2)C1 (stereo not drawn) | 10.2%
6 | Cc1cccc(C2=NOC(=O)/C2=C\c2ccccc2F)c1 | 9.72%
7 | O=C(COC(=O)c1cc([N+](=O)[O-])ccc1N1CCOCC1)Nc1c(Cl)cccc1C(F)(F)F | -3.01%
8 | CC(C)c1ccc(NC(=O)NC(C)c2ccc3c(c2)OCO3)cc1 (stereo not drawn) | 7.37%
9 | O=C(O)CCCN1C(=O)C2C3C=CC(C2C1=O)C1C(=O)N(CCCC(=O)O)C(=O)C31 (stereo not drawn) | 11.6%
10 | COc1ccc(C2CC(=O)Oc3ccc(C(C)(C)C)cc32)cc1 (stereo not drawn) | 4.67%
11 | O=C(Cn1nnc(-c2ccc3c(c2)OCO3)n1)Nc1ccccc1C(=O)O | 17.4%
12 | COc1cc2c(cc1OC)C1(CCCCC1)CN(C)C2.Cl | -6.18%
13 | C=CCN1C(=O)C(Cc2ccccc2)S/C1=N/N=C/c1cccs1 (stereo not drawn) | 13.5%
14 | OCCn1c(SCCOc2ccccc2)nc2ccccc21 | 3.95%
15 | O=C1CS/C(=N/N=C2C3CC4CC(C3)CC2C4)N1 | -4.65%
16 | C=CCNC(=O)C1CC1(c1cccc(C)c1)c1cccc(C)c1 (stereo not drawn) | 9.37%
17 | Cc1ccc(-c2nn(CC(=O)NCc3cc(-c4nn(C)c(=O)c5ccccc45)ccc3C)c(=O)c3ccccc23)cc1 | -17.1%
18 | COc1ccc(Cn2c(=O)[nH]c3cc(C(=O)N4CCN(c5ccccc5OC)CC4)ccc3c2=O)cc1 | 4.08%
19 | C/C(=N\Nc1nc2ccccc2[nH]1)c1ccc(C)o1 | 8.2%

Row | SMILES | hERG current change (%, negative = inhibition) at 1uM
20 | COc1cc(NC(=O)C2CCCO2)c(C(=O)O)cc1OC (stereo not drawn) | 11.6%
21 | CC(C)(C)NC(=O)c1ccc(Cn2cc(C(F)(F)F)ccc2=O)cc1 | 14.7%
22 | N/C(=N\OC(=O)c1ccc(Cl)c(Cl)c1)c1cccc(CSc2ccccn2)c1 | 6.15%
23 | NC(=S)N/N=C/c1c[nH]c2ccccc12 | -0.424%
24 | Cc1ccc(-n2ncc3c(=O)n(CC(=O)NC4CCCCC4)cnc32)cc1C | 13.5%
25 | CCNc1nc(Oc2ccc(=O)n(C)n2)nc(N2CCOCC2)n1 | 2.51%
26 | Cc1cc(NC(=O)CC(C)C)c(=O)n(Cc2c(F)cccc2Cl)c1 | 4.91%
27 | O=C(Nc1ccccn1)c1ccc(C(=O)Nc2ccccn2)cc1 | 12%
28 | Cc1cc(C(=O)N/N=C/c2cc(Br)c(Br)o2)n[nH]1 | 16.9%
29 | C#CC[N+]1(CC#Cc2ccc(C)cc2)CCCCC1.[Br-] | 2.2%
30 | CCC(C)NC(=O)c1c(N)n(Cc2ccc3c(c2)OCO3)c2nc3ccccc3nc12 (stereo not drawn) | -8.79%
31 | Cc1ccc(NC(=O)N2CCC(C(=O)Nc3ccc(C)cc3C)CC2)cc1 | 16.7%
32 | Cc1ccc(S(=O)(=O)NN=C2C3CC4CC(C3)CC2C4)cc1 | 10.8%
33 | N#Cc1cccn1-c1nccs1 | 7.58%
34 | COc1ccc2ccccc2c1CN1CCN(C(=O)c2ccccc2)CC1 | -1.78%
35 | N#C/C(=C\c1cc(Cl)cc(Cl)c1O)C(=O)NC1CCCCC1 | -9.47%
36 | COc1ccc(C(=O)N2CCCc3ccccc32)cc1OC | 15%
37 | Cc1ccc(N(CCC#N)C(=O)COC(=O)C2CCN(S(=O)(=O)c3ccc(C)c(C)c3)CC2)cc1 | 10.4%
38 | COc1ccc(C(=O)NC2=NCCS2)cc1S(=O)(=O)N1CCCCC1C (stereo not drawn) | 3.41%

Row | SMILES | hERG current change (%, negative = inhibition) at 1uM
39 | COc1ccc(CCNC(=O)CSc2ccc(-c3ccco3)nn2)cc1 | 10.1%
40 | O=C(NCCO)NC(=S)c1ccccc1 | 0.517%
41 | Cc1ccc(NC(=O)COC(=O)C2CC2C)c(S(=O)(=O)N2CCCCC2)c1 (stereo not drawn) | -5.49%
42 | COc1cccc(C(=O)CC(=O)C(=O)Nc2cc(OC)ccc2OC)c1 | 12%
43 | COc1ccc2cc(-c3cc(C(=O)OCC(=O)NC4CCS(=O)(=O)C4)c4ccccc4n3)ccc2c1 (stereo not drawn) | 13.9%
44 | COc1cccc(OCC(=O)N(C)Cc2nc(-c3ccccc3)no2)c1 | 10.2%
45 | O=C(Nc1cccc(S(=O)(=O)N2CCCC2)c1)c1ccc2ccccc2n1 | 3.9%
46 | Cc1cc(C(=O)N/N=C2\CC(=O)CC(C)(C)C2)c(C)n1-c1ccc(F)cc1 | 12.6%
47 | Cc1ccnc(NC(=O)Nc2cccc(F)c2)c1 | 4.31%
48 | CC(C/C=N/NC(=O)COc1cc(Cl)ccc1Cl)c1ccccc1 (stereo not drawn) | 7.65%
49 | COc1cc(C(=O)NCC(=O)NCCCSc2ccccc2)cc(OC)c1OC | 4.52%
50 | Cc1ccc(C)c2sc(NC(=O)CN3C(=O)CCC3=O)nc12 | 9.72%
51 | CC(=O)NNC(=O)CCn1nnc2ccccc21 | 12%
52 | CCOC(=O)Cn1c(CN2CCN(C(c3ccccc3)c3ccccc3)CC2)nc2c1c(=O)n(C)c(=O)n2C | 4.93%
53 | O=C(CNC(=O)c1ccc(Br)o1)Nc1cccc(S(=O)(=O)N2CCOCC2)c1 | 13%
54 | O=C(CN1CCN(Cc2ccccc2)CC1)NCC1COc2ccccc2O1 (stereo not drawn) | -0.645%
55 | CCOc1ccc(NC(=O)CSc2nnc(Cc3ccccc3)c(=O)n2N)cc1 | 18.5%
56 | O=C1c2ccccc2C(=O)N1CCn1ccnc1 | 17.7%
57 | Clc1ncnc2scc(C3COc4ccccc4O3)c12 (stereo not drawn) | 19.4%
